Test results reported in PubChem BioAssay AID504333 (National Center for Advancing Translational Sciences (NCATS), 2011).
Among all 360,000 compounds or so, about 16,000 (4.4%) were called active. This list was built around the results that the source calls inconclusive (neither active nor inactive); the mix of calls is not that of the screen. Calls come from the whole dose curve; as a rule, active = well fitted inhibition curve with a large enough effect; inconclusive = small, poorly fitted or top-dose-only effect; inactive = no such curve, though single readings can be large or run the other way. A potency beside an inconclusive call is a rough fit, not a confirmed value. Some structures have more than one record in an assay (separate samples or runs), and their calls can disagree.

What follows are compounds tested against Bromodomain adjacent to zinc finger domain protein 2B (Homo sapiens) (UniProt Q9UIF8) (assay: qHTS Assay for Inhibitors of BAZ2B). Conditions: AlphaScreen BAZ2B-H3K14Ac peptide displacement; series mostly up to 114 µM.
In short: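 Multi-concentration screen (max 110 uM) measuring displacement of acetylated histone H3 peptide from BAZ2B by AlphaScreen, using 50 nM protein, 50 nM peptide and 10 ug/mL streptavidin donor plus Ni-chelate acceptor beads.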
Note: nearly all actives have a fitted effect of over 60% in size.
Potency is the fitted concentration of half-maximal effect; tags give direction and shape of the fitted curve.

UniProt Q9UIF8, sequence (Q9UIF8 whole entry, looked up, the tested form may be a part): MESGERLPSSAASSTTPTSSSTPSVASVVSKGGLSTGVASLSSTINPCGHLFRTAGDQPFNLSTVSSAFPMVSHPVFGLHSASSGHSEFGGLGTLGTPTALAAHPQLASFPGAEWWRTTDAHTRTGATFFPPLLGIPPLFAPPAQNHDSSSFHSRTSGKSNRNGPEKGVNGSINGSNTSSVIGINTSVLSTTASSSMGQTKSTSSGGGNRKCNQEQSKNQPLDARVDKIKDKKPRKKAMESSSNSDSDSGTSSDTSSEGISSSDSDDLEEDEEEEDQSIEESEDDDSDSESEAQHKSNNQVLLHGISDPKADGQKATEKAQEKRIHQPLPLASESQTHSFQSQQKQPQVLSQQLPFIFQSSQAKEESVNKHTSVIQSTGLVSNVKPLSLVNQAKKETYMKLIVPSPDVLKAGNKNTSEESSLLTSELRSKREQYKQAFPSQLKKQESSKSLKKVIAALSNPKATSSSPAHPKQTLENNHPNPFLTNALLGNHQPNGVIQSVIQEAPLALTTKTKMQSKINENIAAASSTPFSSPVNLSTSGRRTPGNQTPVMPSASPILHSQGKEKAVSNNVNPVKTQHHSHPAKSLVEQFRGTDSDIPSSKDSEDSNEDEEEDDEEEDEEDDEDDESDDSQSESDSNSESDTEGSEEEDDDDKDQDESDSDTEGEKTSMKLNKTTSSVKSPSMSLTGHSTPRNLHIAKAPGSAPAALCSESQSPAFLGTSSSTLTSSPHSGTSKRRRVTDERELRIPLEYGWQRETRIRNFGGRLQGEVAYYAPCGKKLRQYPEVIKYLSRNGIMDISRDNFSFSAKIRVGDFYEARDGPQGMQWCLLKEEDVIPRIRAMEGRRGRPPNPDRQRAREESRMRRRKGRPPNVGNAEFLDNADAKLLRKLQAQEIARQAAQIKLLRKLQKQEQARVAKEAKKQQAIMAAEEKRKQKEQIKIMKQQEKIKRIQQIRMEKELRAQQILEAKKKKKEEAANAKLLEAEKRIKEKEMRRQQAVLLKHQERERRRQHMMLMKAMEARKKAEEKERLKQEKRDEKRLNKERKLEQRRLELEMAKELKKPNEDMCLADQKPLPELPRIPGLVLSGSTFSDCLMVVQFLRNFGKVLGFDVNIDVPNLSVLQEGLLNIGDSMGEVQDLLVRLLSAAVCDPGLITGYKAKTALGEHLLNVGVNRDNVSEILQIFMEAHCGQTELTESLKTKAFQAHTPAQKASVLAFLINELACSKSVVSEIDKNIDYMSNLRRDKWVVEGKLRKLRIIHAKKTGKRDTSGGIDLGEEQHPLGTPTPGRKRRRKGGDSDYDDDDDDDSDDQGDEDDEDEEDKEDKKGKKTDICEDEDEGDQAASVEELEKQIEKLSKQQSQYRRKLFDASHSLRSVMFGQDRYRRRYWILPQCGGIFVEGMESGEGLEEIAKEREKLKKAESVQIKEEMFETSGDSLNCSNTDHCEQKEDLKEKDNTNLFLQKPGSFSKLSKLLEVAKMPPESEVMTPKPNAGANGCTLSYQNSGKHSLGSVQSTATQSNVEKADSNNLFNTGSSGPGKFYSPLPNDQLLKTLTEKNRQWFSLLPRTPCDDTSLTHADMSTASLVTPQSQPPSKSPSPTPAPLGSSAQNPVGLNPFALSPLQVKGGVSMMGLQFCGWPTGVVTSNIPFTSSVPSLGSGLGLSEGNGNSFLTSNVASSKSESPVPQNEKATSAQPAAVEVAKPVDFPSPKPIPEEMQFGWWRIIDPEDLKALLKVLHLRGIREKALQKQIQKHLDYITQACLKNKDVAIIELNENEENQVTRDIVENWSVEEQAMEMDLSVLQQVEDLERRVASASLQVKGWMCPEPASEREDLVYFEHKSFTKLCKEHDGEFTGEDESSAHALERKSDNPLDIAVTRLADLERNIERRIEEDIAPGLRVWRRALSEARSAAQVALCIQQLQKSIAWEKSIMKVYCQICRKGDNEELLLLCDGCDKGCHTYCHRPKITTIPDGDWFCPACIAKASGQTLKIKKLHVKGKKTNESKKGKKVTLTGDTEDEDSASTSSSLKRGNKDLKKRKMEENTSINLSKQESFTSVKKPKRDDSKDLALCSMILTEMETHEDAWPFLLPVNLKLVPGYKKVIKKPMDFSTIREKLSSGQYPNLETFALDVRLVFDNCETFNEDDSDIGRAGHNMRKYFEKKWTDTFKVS

SMILES | Potency
CN(C)CCNc1ncnc2c1sc1nc(-c3ccccc3)c3c(c12)CCCC3 | inconclusive: 44.7 µM [inhibitor, partial curve]
CCS(=O)(=O)n1nc(C(=O)N2CCOCC2)nc1N | inconclusive: 89.1 µM [inhibitor, single point]
Cc1ccc(S(=O)(=O)CCN2CCC(n3cccc3)CC2)cc1 | active: 39.8 µM
COc1cc(/C=N/NC(=O)c2ccc(-n3cccc3)cc2)ccc1O | inconclusive: 35.5 µM [inhibitor, partial curve]
COc1ccc(NC(C)C(=O)N/N=C/c2ccc([N+](=O)[O-])s2)cc1 (stereo unspecified) | inconclusive: 44.7 µM [inhibitor, partial curve]
CC(C)(C)OC(=O)N1CCC(C(=O)O)CC1 | inconclusive: 100 µM [inhibitor, single point]
Cc1ccc(-c2nn3c(=O)cc(CN4CCN(S(=O)(=O)c5ccc(Cl)cc5)CC4)nc3s2)cc1 | inactive
Cc1nnc(SCC(=O)Nc2cccc(C(F)(F)F)c2)n1Cc1ccco1 | inactive
Cc1onc(-c2ccccc2)c1C(=O)Nc1ccc(S(=O)(=O)Nc2nccs2)cc1 | inconclusive: 79.4 µM [inhibitor, single point]
O=[N+]([O-])c1ccc2c(c1)nc1n2CCN(c2ccccc2)C1 | inconclusive: 79.4 µM [inhibitor, single point]
O=C(CSc1nc(-c2cccs2)cc(C(F)(F)F)n1)NCc1ccco1 | inconclusive: 50.1 µM [inhibitor, partial curve]
CC1CCC(N2CCN(C(=O)c3ccccc3F)CC2)CC1 (stereo unspecified) | active: 79.4 µM
Cc1cc(C)cc(NC(=O)c2ncn(-c3ccccc3)n2)c1 | inactive
COc1ccc(CN2CCN(CC3CC3)CC2CCO)cc1C (stereo unspecified) | inactive
Cc1c(Cl)cccc1NC(=O)C(C)N(c1ccccc1)S(C)(=O)=O (stereo unspecified) | inactive
COc1ccc2c(=O)c(C(=O)NCc3ccccc3)c[nH]c2c1 | inconclusive: 89.1 µM [inhibitor, single point]
c1ccc(C2Nc3ccccc3C3OCCCC23)cc1 (stereo unspecified) | inconclusive: 50.1 µM [inhibitor, partial curve]
Cn1c2ccccc2c2cc(C(=O)O)ccc21 | inconclusive: 89.1 µM [inhibitor, single point]
CCOC(=O)c1c(C)oc2c1c(C(c1ccccc1)N1CCOCC1)c(O)c1ccccc12 (stereo unspecified) | inactive
COc1cc(/C=N/N2CCN(C3c4ccccc4-c4ccccc43)CC2)ccc1O | active: 35.5 µM
CC1CCCCC1NCC(=O)Nc1ccccc1-c1ccccc1 (stereo unspecified) | inconclusive: 89.1 µM [inhibitor, single point]
Cc1ccc(NC(=O)N2CCCC(C(=O)O)C2)cc1 (stereo unspecified) | inconclusive: 79.4 µM [inhibitor, single point]
CC1=C(c2ccc(C)c(C)c2)S(=O)(=O)N(Cc2ccc(C(=O)NCc3ccc(C)cc3)cc2)C1=O | inactive
Cc1ccc(Sc2ccc(/C=N/O)cc2[N+](=O)[O-])cc1 | inconclusive: 39.8 µM [inhibitor, partial curve]
O=C(c1ccc(F)cc1)C1CCN(Cc2ccc(F)cc2)CC1 | inactive
CCOc1ccccc1CNC(=O)Cn1nc(C)c2nn(-c3ccc(Cl)cc3)c(C)c2c1=O | inactive

SMILES | Potency
CC(C)(C)OC(=O)N/N=C/c1cc(N=Nc2ccccc2)ccc1O | inconclusive: 10 µM [inhibitor, full curve]
COCCn1nnnc1C(c1ccc2ncccc2c1)N1CCN(c2ccccc2F)CC1 (stereo unspecified) | active: 50.1 µM
O=C(CCN1C(=O)/C(=C/c2ccco2)SC1=S)Nc1ccc(C(=O)O)c(O)c1 | active: 44.7 µM
COc1ccc(OCC(O)CNc2ccc(Br)cc2)cc1 (stereo unspecified) | inconclusive: 44.7 µM [inhibitor, partial curve]
O=C(CN1C(=O)COc2ccc(S(=O)(=O)N3CCCCC3)cc21)NCCc1ccc(Cl)cc1 | inconclusive: 79.4 µM [inhibitor, single point]
O=C(Nc1nnc(S(=O)(=O)N2CCCC2)s1)c1ccccc1Cl | active: 5.01 µM
NC(=O)COC(=O)c1ccc(Cl)c(S(=O)(=O)N2CCN(c3ccc(F)cc3)CC2)c1 | inconclusive: 39.8 µM [inhibitor, full curve]
Cc1cnc(NC(=O)CCCSc2nc3ccccc3s2)s1 | inactive
Cc1cccc(CSc2ncc(Cl)c(C(=O)Nc3sc4c(c3C#N)CCCC4)n2)c1 | inactive
COc1ccccc1CN1CCN(Cc2ccco2)CC1 | active: 25.1 µM
CC(=O)N1CCN(C(=O)c2ccc(OC3CCN(Cc4ccccn4)CC3)cc2)CC1 | inactive
CCc1n(CC(O)COC2CCCCC2)c2ccccc2[n+]1C (stereo unspecified) | inconclusive: 89.1 µM [inhibitor, single point]
NC(=S)NNc1ccc(Cl)c(Cl)c1 | inconclusive: 50.1 µM [inhibitor, partial curve]
COc1ccc(NC(=O)CSc2nc3ccsc3c(=O)n2Cc2ccccn2)c(OC)c1 | inconclusive: 89.1 µM [inhibitor, single point]
COc1cc(NC(=O)c2ccc(Br)o2)ccc1NC(=O)c1ccccc1Cl | inconclusive: 79.4 µM [inhibitor, single point]
Cc1ccc(CN2CCN(/N=C/c3ccc(O)c(O)c3)CC2)cc1 | active: 50.1 µM
Cc1onc(-c2ccccc2Cl)c1C(=O)NCCCN1CCOCC1 | inactive
CC(=O)N/N=C(\C)c1cccc(C(F)(F)F)c1 | inactive
O=C1/C(=C/c2ccncc2)SC(=S)N1Cc1ccccc1 | active: 11.2 µM
CCc1cccc(CC)c1NC(=O)Cc1csc(C)n1 | inactive
CS(=O)(=O)N(CC(=O)N1CCC(C(N)=O)CC1)Cc1ccc(Cl)c(Cl)c1 | inactive
COC(=O)[C@]1(CC(C)C)N[C@H](c2ccc(-c3ccc(F)cc3)c(OC)c2)[C@@H]2C(=O)N(C)C(=O)[C@@H]21 | inconclusive: 89.1 µM [inhibitor, single point]
Cc1ccc(-n2c(=S)[nH]c3sc4c(c3c2=O)CCC4)cc1 | inactive
Cc1ccc(S(=O)(=O)CCC(=O)Nc2ccc3c(c2)OCO3)cc1 | inactive
COc1ccc(OC)c(NC(=O)c2ccc(-c3nc(COc4ccccc4)c(C)o3)cc2)c1 | inconclusive: 89.1 µM [inhibitor, single point]
COc1ccc(N=Nc2cnc(C)nc2-c2ccccc2)cc1 | active: 20 µM

SMILES | Potency
O=C(Cn1c(=O)oc2cc(S(=O)(=O)NCc3ccccc3)ccc21)NCc1ccc(F)cc1 | inactive
COc1ccc2nc(C)cc(Nc3ccc(N4CCN(C)CC4)cc3)c2c1 | inconclusive: 79.4 µM [inhibitor, single point]
COc1ccc(/C=C/C(=O)Oc2cccc(/C=N/NC(=O)COc3c(C)cccc3C)c2)cc1 | active: 100 µM
COc1ccc(NC(=O)CSc2nc(C)cs2)c(OC)c1 | inconclusive: 89.1 µM [inhibitor, single point]
CCOC(=O)c1c(C)[nH]c(C)c1C(=O)COC(=O)c1ccc(S(=O)(=O)N(CC)CC)cc1 | inconclusive: 44.7 µM [inhibitor, partial curve]
Cc1ccc(C(=O)Nc2cccc(C(=O)N3CCOCC3)c2)cc1 | inactive
CSCCC1NC2(C(=O)Nc3ccc(Cl)cc32)[C@@H]2C(=O)N(C3CCCC3)C(=O)[C@H]12 (stereo partly specified) | inconclusive: 44.7 µM [inhibitor, partial curve]
CCN1CC=C2C(C#N)=C(N)C(C#N)(C#N)C(CCc3ccccc3)C2C1 (stereo unspecified) | inconclusive: 89.1 µM [inhibitor, single point]
Cc1ccc(CNC(=O)[C@H](C)[C@H]2C[C@]2(C)[C@H](NC(=O)OCc2ccccc2)c2ccccc2)o1 | inconclusive: 79.4 µM [inhibitor, single point]
COc1ccc(N(CC(=O)Nc2ccc3c(c2)OCO3)S(C)(=O)=O)c(OC)c1 | inconclusive: 89.1 µM [inhibitor, single point]
COC(=O)c1ccc2c(=O)n(CCN3CCOCC3)c(=S)[nH]c2c1 | inactive
CCOc1ccc(/C=N/NC(=O)C(=O)N2CCCCCC2)c2ccccc12 | active: 70.8 µM
O=C(N/N=C/c1sc2ccccc2c1O)c1ccccc1 | inconclusive: 56.2 µM [inhibitor, partial curve]
CCOC(=O)c1c(C)[nH]c(CCC(=O)Nc2ccc(N(CC)CC)cc2C)c1C | inactive
COc1ccccc1OCc1nc(-c2ccc([N+](=O)[O-])cc2)no1 | inconclusive: 15.8 µM [inhibitor, full curve]
CC(Oc1ccc2c3c(c(=O)oc2c1)CCCC3)C(=O)NCC(O)c1ccccc1 (stereo unspecified) | inactive
CCCCC1(C)NC(=S)N2N1C(=S)NC2(C)CCCC (stereo unspecified) | active: 79.4 µM
COc1ccc(CN(C(=O)Nc2ccccc2)c2ccccn2)cc1OC | inconclusive: 89.1 µM [inhibitor, single point]
O=c1/c(=C/c2ccco2)sc2n1CN(c1cccc(Br)c1)CN=2 | inconclusive: 50.1 µM [inhibitor, partial curve]
c1ccc(N/N=C(\Cc2ncc[nH]2)c2ccccc2)cc1 | inconclusive: 44.7 µM [inhibitor, partial curve]
Cc1ccccc1-c1nnn(C/C(N)=N/O)n1 | inactive
Cc1ccc(NC(=O)COC(=O)C2CC(=O)N(Cc3ccccc3)C2)cc1S(=O)(=O)N(C)C (stereo unspecified) | inactive
O=C(c1cccc(F)c1)N1CCC(N2CCOCC2)CC1 | active: 50.1 µM
COC(=O)C1=C(CSc2nc3c(cc2C#N)CN(C)CC3)OC(N)=C(C#N)C1c1ccccc1F (stereo unspecified) | inconclusive: 44.7 µM [inhibitor, partial curve]
